Laboratory results: PubChem BioAssay AID624418 (National Center for Advancing Translational Sciences (NCATS), 2012)
About 530 (0.13%) of roughly 410,000 compounds were called active. The shares of active, inactive and inconclusive entries below differ from those in the screen. Calls come from the whole dose curve; as a rule, active = well fitted inhibition curve with a large enough effect; inconclusive = small, poorly fitted or top-dose-only effect, or another doubt; inactive = no such curve, though single readings can be large or run the other way. Potencies beside an inconclusive call are fits to weak or partial responses and may not hold up.

assay: qHTS of GLP-1 Receptor Inverse Agonists: Cytotox Screen; conditions: HEK293 cAMP-luciferase reporter cells, luminescence, 24 h; series mostly up to 38.3 µM
Procedure, shortened: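 MLSMR compounds, 24 hr on cells at 37 deg C/5% CO2; luminescence after luciferase reagent (12 min RT). Inhibition counted as the undesired cytotoxic outcome.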
Potency is the fitted concentration of half-maximal effect.

Structure (SMILES) | Potency
C/C(=N\Nc1cc(-c2ccccc2)nc(-c2ccccc2)n1)c1ccc(O)c(C)c1 | inconclusive: 28.2 µM [inhibitor, single point]
Cc1ccc2c(c1)[nH]c1c(=O)n(CCCN3CCOCC3)cnc12 | inactive
COCCCN1C(=O)/C(=C/c2ccc(CNS(=O)(=O)c3ccccc3)o2)C(C(=O)OC)=C1C | inactive
Cc1ccc(NC(=O)CSc2nnc(CNC(=O)C34CC5CC(CC(C5)C3)C4)n2-c2ccc(F)cc2)cc1 | inconclusive: 22.4 µM [inhibitor, single point]
CN(C)c1ccc(-c2n(C)c3ccccc3[n+]2C)cc1 | inconclusive: 2 µM [inhibitor, full curve, poor fit]
COc1ccc(NC(=O)/C(Cl)=C(/Cl)S(=O)(=O)Cc2ccccc2)cn1 | inconclusive: 5.62 µM [inhibitor, partial curve, poor fit]
CC1(C)C2CCC(C2)C1C/C=N/NC(N)=S (configuration not stated) | inconclusive: 10 µM [inhibitor, partial curve, poor fit]
Cc1c(C(=O)NCC(c2ccc(Cl)cc2)N2CCOCC2)oc2ccccc12 (configuration not stated) | inactive
CCCCOC(=O)c1ccc(NC(=O)c2cc3c(=O)n4cccc(C)c4nc3s2)cc1 | inactive
O=C(c1ccc(Cl)cc1)C1CCN(CC(=O)N2CCCCC2)CC1 | inconclusive: 2.82 µM [inhibitor, full curve, poor fit]
COc1ccc(-c2nc(CSCC(=O)NCC3CCCO3)c(C)o2)cc1OC (configuration not stated) | inactive
COc1ccc(-n2nnnc2-c2ccccc2)cc1 | inconclusive: 1.78 µM [inhibitor, full curve, poor fit]
C/C=C/Cn1c(SCc2ccc(C)cc2)nc2c1c(=O)[nH]c(=O)n2C | inconclusive: 11.2 µM [inhibitor, single point]
Nc1ccc(C(=O)OCC(=O)NC2CCCc3ccccc32)cc1[N+](=O)[O-] (configuration not stated) | inconclusive: 11.2 µM [inhibitor, single point]
COc1cccc(-c2c(C(=O)N/N=C/c3cccnc3)nnn2-c2nonc2N)c1 | inconclusive: 31.6 µM [inhibitor, single point]
CCNc1ccc(Br)cc(C(=O)/C=C/c2ccccc2Cl)c1=O | inconclusive: 28.2 µM [inhibitor, single point]
Cc1nnc(NC(=O)c2ccccc2-c2ccccc2C(=O)O)s1 | inactive
COc1ccccc1N1CCN(C(=O)c2nc(SC)ncc2Cl)CC1 | inconclusive: 2 µM [inhibitor, partial curve, poor fit]
CCC(Cc1ccccc1)NC(=O)C1CCN(S(=O)(=O)c2c(C)noc2C)CC1 (configuration not stated) | inconclusive: 7.94 µM [inhibitor, single point]
COc1ccc(CC(=O)Oc2ccc(C)cc2Br)cc1OC | inconclusive: 3.55 µM [inhibitor, full curve, poor fit]
COc1ccc(/C=C/C(=O)Nc2ccc3nc4c(c(Nc5ccccc5OC)c3c2)CCCC4)cc1 | inconclusive: 5.62 µM [inhibitor, full curve, poor fit]

Structure (SMILES) | Potency
CC1=NNC(=O)/C1=C\c1cn(-c2ccccc2)nc1-c1ccc(F)cc1 | inconclusive: 28.2 µM [inhibitor, single point]
CC(C)n1c(N2CCN(CC(=O)NCc3cccs3)CC2)nc2ccccc21 | inconclusive: 31.6 µM [inhibitor, single point]
CCCCc1ccc(NC(=S)Nc2ccc(Nc3ccc(OC)cc3)cc2)cc1 | inactive
OC(c1ccccc1)(c1ccccc1)C1CCN(CCCOc2ccc(F)cc2)CC1 | inconclusive: 22.4 µM [inhibitor, single point]
CCn1cc(C(=O)NC(=S)Nc2ccccc2Br)cn1 | inconclusive: 12.6 µM [inhibitor, single point]
COC(=O)[C@]12CCCCC=C1N(Cc1cccc3ccccc13)C(=O)[C@H](CC(=O)NCc1ccc(OC)c(OC)c1)C2 | inconclusive: 20 µM [inhibitor, single point]
CCN(CC)C1Oc2cc3c(cc2C(c2cc(OC)c(O)c(OC)c2)C1C)OCO3 (configuration not stated) | inconclusive: 8.91 µM [inhibitor, partial curve]
Cc1[nH]nc(C(F)(F)F)c1N=NN1CCOCC1 | inconclusive: 22.4 µM [inhibitor, single point]
S=C(NCc1ccccc1)Nc1cccc2ccccc12 | inconclusive: 10 µM [inhibitor, single point]
CCNC(=O)C1CCCN(C(=O)Cc2ccc3ccccc3c2)CC1 (configuration not stated) | inactive
CC(C(=O)NC(C)(C)C)n1c(-c2ccc3c(c2)OCO3)nc2ccccc21 (configuration not stated) | inactive
O=C1Nc2ccccc2C1(O)Cc1ccccn1 (configuration not stated) | inconclusive: 0.501 µM [inhibitor, full curve, poor fit]
Cc1cc(C)cc(NC(=O)CCc2nc3sc4c(c3c(=O)[nH]2)CCCC4)c1 | inconclusive: 10 µM [inhibitor, single point]
O=c1[nH]c2ccc(Cl)cc2c(-c2ccccc2)c1SC(=S)N1CCCCC1 | inconclusive: 22.4 µM [inhibitor, single point]
CC1=C/C(=N\OS(=O)(=O)c2ccccc2)C=CC1=O | inconclusive: 28.2 µM [inhibitor, single point]
Cc1cc(C)nc(N2CCC(C(=O)NC3CCCCCC3)CC2)n1 | inactive
CC1CCCN(C(=O)c2ccc3c(c2NCCO)C(=O)c2ccccc2C3=O)C1 (configuration not stated) | inconclusive: 28.2 µM [inhibitor, single point]
COc1ccc(C(=O)Nc2ccc3nc(N4CCCCC4)cc(C)c3c2)cc1OC | inconclusive: 14.1 µM [inhibitor, single point]
Cc1ccc(OCCC(=O)OC(C)C(=O)Nc2ccc(Cl)cn2)cc1 (configuration not stated) | inactive
Cc1[nH]c2ccccc2c1/C=N/NC(=S)NCc1ccccc1 | inconclusive: 28.2 µM [inhibitor, single point]
Cc1ccc(Cn2nnc3c(=O)[nH]c(C4CCCN(S(=O)(=O)c5ccccc5)C4)nc32)cc1 (configuration not stated) | inconclusive: 14.1 µM [inhibitor, single point]
